Test results published in the supplement of paper PMC4604168 (melanoma cell lines).
The list shows a part of the results. Many values rest on one well or one pass, so single values are uncertain.

Experiments:
Assay in all cases: cell count relative to DMSO control; melanoma cells; higher = more viable cells
Conditions in all cases: library dose: low library concentration; 72 h
[1] = tested on: COLO792
[2] = tested on: COLO800
[3] = tested on: COLO829
[4] = tested on: G361
[5] = tested on: IPC-298
[6] = tested on: IST-MEL1
[7] = tested on: LB2518-MEL
[8] = tested on: LOXIMVI
[9] = tested on: MEL-HO
[10] = tested on: MZ2-MEL
[11] = tested on: MeWo
[12] = tested on: RPMI7951
[13] = tested on: RVH-421
[14] = tested on: SkMel28
[15] = tested on: SkMel2
[16] = tested on: SkMel30
[17] = tested on: SkMel5
[18] = tested on: UACC257
[19] = tested on: UACC62
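Note: cell number obtained by counting DAPI-stained nuclei in high-throughput microscope images with image analysis software, screen run in 1,536-well plates.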

SMILES	cell count [1]	cell count [2]	cell count [3]	cell count [4]	cell count [5]	cell count [6]	cell count [7]	cell count [8]	cell count [9]	cell count [10]	cell count [11]	cell count [12]	cell count [13]	cell count [14]	cell count [15]	cell count [16]	cell count [17]	cell count [18]	cell count [19]
CCCS(=O)(=O)Nc1ccc(F)c(C(=O)c2c[nH]c3ncc(Cl)cc23)c1F + N#Cc1c(O)c2c(-c3ccc(-c4ccccc4O)cc3)csc2[nH]c1=O [A769662] (first compound 0.08 µM, partner dose 2 µM)	102%	141%	101%	86.3%	93%	81.1%	104%	104%	94.9%	84.5%	96.8%	116%	79.2%	64.5%	96.8%	69.9%	112%	95%	81%
NC1(c2ccc(-c3nc4ccn5c(=O)[nH]nc5c4cc3-c3ccccc3)cc2)CCC1 + Cc1cc([N+](=O)[O-])ccc1NS(=O)(=O)c1cc(Cl)ccc1Cl [FH535] (first compound 0.4 µM, partner dose 1 µM)	67.9%	79.4%	85.2%	91.1%	87.5%	91.2%	80.6%	97.8%	79%	88%	101%	100%	72.2%	64.5%	84.2%	86.5%	70.8%	66.8%	70.9%
NC1(c2ccc(-c3nc4ccn5c(=O)[nH]nc5c4cc3-c3ccccc3)cc2)CCC1 + COc1ccc(-c2ccc3c(N4CCOCC4)nc(N4C[C@@H](C)O[C@@H](C)C4)nc3n2)cc1CO [KU0063794] (first compound 0.4 µM, partner dose 0.02 µM)	55.6%	82.9%	115%	95.5%	94.1%	95.6%	78.7%	92.8%	86.3%	90.9%	74.7%	84.7%	81.7%	68%	84.3%	76.3%	103%	53.2%	70.2%
CCCS(=O)(=O)Nc1ccc(F)c(C(=O)c2c[nH]c3ncc(Cl)cc23)c1F + CN(C)S(=O)(=O)c1ccc2c(c1)/C(=C/c1cc3c([nH]1)CCCC3)C(=O)N2 [SU6656] (first compound 0.08 µM, partner dose 0.4 µM)	83.7%	82.9%	93.4%	100%	92.1%	90.9%	98.2%	176%	91.5%	95.5%	82.1%	108%	93.7%	61.6%	98.5%	89.1%	78.4%	70.5%	68.3%
CN(c1ncccc1CNc1nc(Nc2ccc3c(c2)CC(=O)N3)ncc1C(F)(F)F)S(C)(=O)=O + CN(C)S(=O)(=O)c1ccc2c(c1)/C(=C/c1cc3c([nH]1)CCCC3)C(=O)N2 [SU6656] (first compound 0.08 µM, partner dose 0.4 µM)	83.3%	77.1%	78.4%	78%	91.2%	92.5%	78%	135%	104%	93.7%	92%	89.9%	81.1%	89.9%	86%	89.8%	68.8%	78%	74.5%
C=C(c1ccc(C(=O)O)cc1)c1cc2c(cc1C)C(C)(C)CCC2(C)C [Bexarotene] + C=CCn1c(=O)c2cnc(Nc3ccc(N4CCN(C)CC4)cc3)nc2n1-c1cccc(C(C)(C)O)n1 [MK1775] (first compound 2 µM, partner dose 0.02 µM)	88.3%	84.3%	103%	85%	93.3%	95.3%	73.3%	75.6%	101%	100%	94.9%	76.4%	69.2%	71.8%	93.3%	105%	93.7%	103%	87.8%
NC1(c2ccc(-c3nc4ccn5c(=O)[nH]nc5c4cc3-c3ccccc3)cc2)CCC1 + c1cc(-c2cnn3cc(-c4ccc(OCCN5CCCCC5)cc4)cnc23)ccn1 [Dorsomorphin] (first compound 0.4 µM, partner dose 0.4 µM)	68%	98.7%	99.1%	78.7%	94.2%	95.4%	84.3%	92.1%	95.3%	96.5%	89%	84%	93.7%	76.4%	114%	87%	81.2%	96.1%	79.3%
C=C(c1ccc(C(=O)O)cc1)c1cc2c(cc1C)C(C)(C)CCC2(C)C [Bexarotene] + CCCCCCCCCCCC1=C(O)C(=O)C=C(O)C1=O [Embelin] (first compound 2 µM, partner dose 1.2 µM)	98.1%	102%	99.1%	82.1%	99.9%	106%	128%	171%	93.7%	102%	99.4%	106%	88.3%	66.2%	96.5%	109%	87.9%	102%	91.8%
CS(=O)(=O)c1ccc(C(=O)Nc2ccc(Cl)c(-c3ccccn3)c2)c(Cl)c1 [vismodegib] + O=C(Nc1cccc(Cl)c1)Nc1ncc(CCNc2ncnc3ccsc23)s1 [SNS314] (first compound 1 µM, partner dose 0.0008 µM)	96.5%	102%	75.7%	107%	94.5%	113%	95.8%	71.3%	104%	105%	95.3%	124%	5.11%	107%	108%	92.3%	101%	93.3%	102%
CCCS(=O)(=O)Nc1ccc(F)c(C(=O)c2c[nH]c3ncc(Cl)cc23)c1F + COc1ccc(-c2ccc3c(N4CCOCC4)nc(N4C[C@@H](C)O[C@@H](C)C4)nc3n2)cc1CO [KU0063794] (first compound 0.08 µM, partner dose 0.02 µM)	98.7%	116%	95.9%	92.9%	88.3%	92.4%	116%	92.3%	103%	84%	101%	111%	83.8%	65%	84%	92.9%	112%	64%	65.6%
C=C(c1ccc(C(=O)O)cc1)c1cc2c(cc1C)C(C)(C)CCC2(C)C [Bexarotene] + CN(C)S(=O)(=O)c1ccc2c(c1)/C(=C/c1cc3c([nH]1)CCCC3)C(=O)N2 [SU6656] (first compound 2 µM, partner dose 0.4 µM)	84%	139%	96.9%	69.7%	107%	93%	84.2%	173%	90.5%	105%	97.2%	94.7%	104%	74.8%	98.5%	110%	96.7%	88%	75.9%
CN(c1ncccc1CNc1nc(Nc2ccc3c(c2)CC(=O)N3)ncc1C(F)(F)F)S(C)(=O)=O + Oc1cc(-c2nc(-c3ccccc3)[nH]c2-c2ccncc2)ccc1Cl [L779450] (first compound 0.08 µM, partner dose 0.2 µM)	104%	95%	99.2%	84.9%	80.1%	87.9%	80.7%	97.2%	97.4%	67.8%	80.2%	70.6%	104%	76.9%	66.8%	109%	80.8%	50.9%	73.2%
CS(=O)(=O)c1ccc(C(=O)Nc2ccc(Cl)c(-c3ccccn3)c2)c(Cl)c1 [vismodegib] + Cc1ccc(NC(=O)c2cccc(N(C)C)c2)cc1NC(=O)c1ccc(O)cc1 [ZM336372] (first compound 1 µM, partner dose 2 µM)	133%	123%	120%	115%	94.8%	105%	95.9%	106%	94.6%	85.8%	106%	82.9%	114%	92.2%	113%	99.6%	94.6%	92.3%	114%
NC1(c2ccc(-c3nc4ccn5c(=O)[nH]nc5c4cc3-c3ccccc3)cc2)CCC1 + O=C(O)c1ccc(-c2c[nH]c3ncc(-c4ccccc4)cc23)cc1C1CCCC1 [GSK650394] (first compound 0.4 µM, partner dose 0.16 µM)	76.6%	81.7%	94.6%	95.6%	92.1%	92.1%	108%	84.9%	79.3%	93.2%	76.4%	113%	83.1%	63%	89.5%	105%	102%	88.8%	82%
CS(=O)(=O)c1ccc(C(=O)Nc2ccc(Cl)c(-c3ccccn3)c2)c(Cl)c1 [vismodegib] + CCCCCCCCCCCC1=C(O)C(=O)C=C(O)C1=O [Embelin] (first compound 1 µM, partner dose 1.2 µM)	105%	118%	101%	101%	99.8%	99.8%	112%	119%	103%	99.4%	100%	92.6%	121%	103%	113%	111%	106%	86.9%	90.6%
CCCS(=O)(=O)Nc1ccc(F)c(C(=O)c2c[nH]c3ncc(Cl)cc23)c1F + C=CCn1c(=O)c2cnc(Nc3ccc(N4CCN(C)CC4)cc3)nc2n1-c1cccc(C(C)(C)O)n1 [MK1775] (first compound 0.08 µM, partner dose 0.02 µM)	102%	100%	99.4%	92.4%	84.7%	86.9%	78.9%	102%	92.7%	86.8%	89.3%	117%	77.7%	64.1%	87.8%	93.2%	95%	70.2%	61.3%
CCCS(=O)(=O)Nc1ccc(F)c(C(=O)c2c[nH]c3ncc(Cl)cc23)c1F + Oc1nc(-c2ccc(C(F)(F)F)cc2)nc2c1CSCC2 [XAV939] (first compound 0.08 µM, partner dose 2 µM)	79.6%	251%	113%	94.7%	92.7%	89.1%	109%	158%	66%	91.6%	93.9%	103%	91%	93.8%	99.4%	98.4%	94.4%	90.9%	81.5%
